Test results from patent US20120178908A1 (Novo Nordisk, published 2012).

T1: TLT-1 18-188 relipidated in 20:80 PS:PC vesicles (human, UniProt Q86YW5 18-188)
T1 sequence: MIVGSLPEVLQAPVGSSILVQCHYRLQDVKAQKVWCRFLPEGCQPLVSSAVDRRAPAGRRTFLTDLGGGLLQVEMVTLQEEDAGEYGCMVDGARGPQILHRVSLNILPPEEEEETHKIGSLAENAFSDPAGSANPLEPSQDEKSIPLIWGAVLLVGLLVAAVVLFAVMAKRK

T2: TLT-1 receptor on the surface of activated human platelets (human, UniProt Q86YW5 16-311)
T2 sequence: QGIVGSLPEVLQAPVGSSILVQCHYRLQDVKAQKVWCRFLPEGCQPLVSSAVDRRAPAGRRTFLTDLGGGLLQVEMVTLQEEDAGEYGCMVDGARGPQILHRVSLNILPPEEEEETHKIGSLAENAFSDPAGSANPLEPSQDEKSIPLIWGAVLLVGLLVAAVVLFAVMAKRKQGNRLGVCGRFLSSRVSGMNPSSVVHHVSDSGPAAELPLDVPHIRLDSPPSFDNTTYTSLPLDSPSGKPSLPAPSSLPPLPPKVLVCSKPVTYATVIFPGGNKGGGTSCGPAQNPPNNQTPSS

B1: mAb 0012-(HC-L1-TF)2;LC2 (other)
heavy chain-linker-TF: EVKLLESGGGLVQPGGSLKLSCAASGFDFSRYWMTWVRQAPGKGLEWIGEINPDSSTINYTPSLKDKFIISRDNAKNTLYLQMSEVRSEDTALYYCASGVFTSWGQGTLVTVSAASTKGPSVFPLAPCSRSTSESTAALGCLVKDYFPEPVTVSWNSGALTSGVHTFPAVLQSSGLYSLSSVVTVPSSSLGTKTYTCNVDHKPSNTKVDKRV[human IgG4 Fc with S228P (EU numbers) omitted]GSSGTTNTVAAYNLTWKSTNFKTILEWEPKPVNQVYTVQISTKSGDWKSKCFYTTDTECDLTDEIVKDVKQTYLARVFSYPAGNVESTGSAGEPLYENSPEFTPYLETNLGQPTIQSFEQVGTKVNVTVEDERTLVRRNNTFLSLRDVFGKDLIYTLYYWKSSSSGKKTAKTNTNEFLIDVDKGENYCFSVQAVIPSRTVNRKSTDSPVECMGQEKGEFRE
light chain: DVVMTQTPLSLPVSLGDQASISCRSSQSLVHRNGNTYFHWCLQKPGQSPKLLIYKVSNRFSGVPDRFSGSGSGTDFTLKISRVEAEDLGVYFCSQSTHVPYTFGGGTKLEIKRTVAAPSVFIFPPSDEQLKSGTASVVCLLNNFYPREAKVQWKVDNALQSGNSQESVTEQDSKDSTYSLSSTLTLSKADYEKHKVYACEVTHQGLSSPVTKSFNRGEC
B2: mAb 0012-(HC-L2-TF)2;LC2 (other)
heavy chain-linker-TF: EVKLLESGGGLVQPGGSLKLSCAASGFDFSRYWMTWVRQAPGKGLEWIGEINPDSSTINYTPSLKDKFIISRDNAKNTLYLQMSEVRSEDTALYYCASGVFTSWGQGTLVTVSAASTKGPSVFPLAPCSRSTSESTAALGCLVKDYFPEPVTVSWNSGALTSGVHTFPAVLQSSGLYSLSSVVTVPSSSLGTKTYTCNVDHKPSNTKVDKRV[human IgG4 Fc with S228P (EU numbers) omitted]GSGGGGSSGTTNTVAAYNLTWKSTNFKTILEWEPKPVNQVYTVQISTKSGDWKSKCFYTTDTECDLTDEIVKDVKQTYLARVFSYPAGNVESTGSAGEPLYENSPEFTPYLETNLGQPTIQSFEQVGTKVNVTVEDERTLVRRNNTFLSLRDVFGKDLIYTLYYWKSSSSGKKTAKTNTNEFLIDVDKGENYCFSVQAVIPSRTVNRKSTDSPVECMGQEKGEFRE
light chain: DVVMTQTPLSLPVSLGDQASISCRSSQSLVHRNGNTYFHWCLQKPGQSPKLLIYKVSNRFSGVPDRFSGSGSGTDFTLKISRVEAEDLGVYFCSQSTHVPYTFGGGTKLEIKRTVAAPSVFIFPPSDEQLKSGTASVVCLLNNFYPREAKVQWKVDNALQSGNSQESVTEQDSKDSTYSLSSTLTLSKADYEKHKVYACEVTHQGLSSPVTKSFNRGEC
B3: mAb 0012-(HC-L3-TF)2;LC2 (other)
heavy chain-linker-TF: EVKLLESGGGLVQPGGSLKLSCAASGFDFSRYWMTWVRQAPGKGLEWIGEINPDSSTINYTPSLKDKFIISRDNAKNTLYLQMSEVRSEDTALYYCASGVFTSWGQGTLVTVSAASTKGPSVFPLAPCSRSTSESTAALGCLVKDYFPEPVTVSWNSGALTSGVHTFPAVLQSSGLYSLSSVVTVPSSSLGTKTYTCNVDHKPSNTKVDKRV[human IgG4 Fc with S228P (EU numbers) omitted]GSGGGGSGGGGSSGTTNTVAAYNLTWKSTNFKTILEWEPKPVNQVYTVQISTKSGDWKSKCFYTTDTECDLTDEIVKDVKQTYLARVFSYPAGNVESTGSAGEPLYENSPEFTPYLETNLGQPTIQSFEQVGTKVNVTVEDERTLVRRNNTFLSLRDVFGKDLIYTLYYWKSSSSGKKTAKTNTNEFLIDVDKGENYCFSVQAVIPSRTVNRKSTDSPVECMGQEKGEFRE
light chain: DVVMTQTPLSLPVSLGDQASISCRSSQSLVHRNGNTYFHWCLQKPGQSPKLLIYKVSNRFSGVPDRFSGSGSGTDFTLKISRVEAEDLGVYFCSQSTHVPYTFGGGTKLEIKRTVAAPSVFIFPPSDEQLKSGTASVVCLLNNFYPREAKVQWKVDNALQSGNSQESVTEQDSKDSTYSLSSTLTLSKADYEKHKVYACEVTHQGLSSPVTKSFNRGEC
B4: mAb 0012-(TF-L4b-HC)2;LC2 (other)
TF-linker-heavy chain: SGTTNTVAAYNLTWKSTNFKTILEWEPKPVNQVYTVQISTKSGDWKSKCFYTTDTECDLTDEIVKDVKQTYLARVFSYPAGNVESTGSAGEPLYENSPEFTPYLETNLGQPTIQSFEQVGTKVNVTVEDERTLVRRNNTFLSLRDVFGKDLIYTLYYWKSSSSGKKTAKTNTNEFLIDVDKGENYCFSVQAVIPSRTVNRKSTDSPVECMGQEKGEFREGGGGSGGGGSGGGGSGSMDFGLIFFIVALLKGVQCEVKLLESGGGLVQPGGSLKLSCAASGFDFSRYWMTWVRQAPGKGLEWIGEINPDSSTINYTPSLKDKFIISRDNAKNTLYLQMSEVRSEDTALYYCASGVFTSWGQGTLVTVSAASTKGPSVFPLAPCSRSTSESTAALGCLVKDYFPEPVTVSWNSGALTSGVHTFPAVLQSSGLYSLSSVVTVPSSSLGTKTYTCNVDHKPSNTKVDKRV[human IgG4 Fc with S228P (EU numbers) omitted]
light chain: DVVMTQTPLSLPVSLGDQASISCRSSQSLVHRNGNTYFHWCLQKPGQSPKLLIYKVSNRFSGVPDRFSGSGSGTDFTLKISRVEAEDLGVYFCSQSTHVPYTFGGGTKLEIKRTVAAPSVFIFPPSDEQLKSGTASVVCLLNNFYPREAKVQWKVDNALQSGNSQESVTEQDSKDSTYSLSSTLTLSKADYEKHKVYACEVTHQGLSSPVTKSFNRGEC
B5: mAb 0012-(HC-L5-TF)2;LC2 (other)
heavy chain-linker-TF: EVKLLESGGGLVQPGGSLKLSCAASGFDFSRYWMTWVRQAPGKGLEWIGEINPDSSTINYTPSLKDKFIISRDNAKNTLYLQMSEVRSEDTALYYCASGVFTSWGQGTLVTVSAASTKGPSVFPLAPCSRSTSESTAALGCLVKDYFPEPVTVSWNSGALTSGVHTFPAVLQSSGLYSLSSVVTVPSSSLGTKTYTCNVDHKPSNTKVDKRV[human IgG4 Fc with S228P (EU numbers) omitted]GGGGSGSGGGGSGGGGSGGGGSSGTTNTVAAYNLTWKSTNFKTILEWEPKPVNQVYTVQISTKSGDWKSKCFYTTDTECDLTDEIVKDVKQTYLARVFSYPAGNVESTGSAGEPLYENSPEFTPYLETNLGQPTIQSFEQVGTKVNVTVEDERTLVRRNNTFLSLRDVFGKDLIYTLYYWKSSSSGKKTAKTNTNEFLIDVDKGENYCFSVQAVIPSRTVNRKSTDSPVECMGQEKGEFRE
light chain: DVVMTQTPLSLPVSLGDQASISCRSSQSLVHRNGNTYFHWCLQKPGQSPKLLIYKVSNRFSGVPDRFSGSGSGTDFTLKISRVEAEDLGVYFCSQSTHVPYTFGGGTKLEIKRTVAAPSVFIFPPSDEQLKSGTASVVCLLNNFYPREAKVQWKVDNALQSGNSQESVTEQDSKDSTYSLSSTLTLSKADYEKHKVYACEVTHQGLSSPVTKSFNRGEC
B6: mAb 0012-(HC-L6-TF)2;LC2 (other)
heavy chain-linker-TF: EVKLLESGGGLVQPGGSLKLSCAASGFDFSRYWMTWVRQAPGKGLEWIGEINPDSSTINYTPSLKDKFIISRDNAKNTLYLQMSEVRSEDTALYYCASGVFTSWGQGTLVTVSAASTKGPSVFPLAPCSRSTSESTAALGCLVKDYFPEPVTVSWNSGALTSGVHTFPAVLQSSGLYSLSSVVTVPSSSLGTKTYTCNVDHKPSNTKVDKRV[human IgG4 Fc with S228P (EU numbers) omitted]GGGGSGGGGSGSGGGGSGGGGSGGGGSSGTTNTVAAYNLTWKSTNFKTILEWEPKPVNQVYTVQISTKSGDWKSKCFYTTDTECDLTDEIVKDVKQTYLARVFSYPAGNVESTGSAGEPLYENSPEFTPYLETNLGQPTIQSFEQVGTKVNVTVEDERTLVRRNNTFLSLRDVFGKDLIYTLYYWKSSSSGKKTAKTNTNEFLIDVDKGENYCFSVQAVIPSRTVNRKSTDSPVECMGQEKGEFRE
light chain: DVVMTQTPLSLPVSLGDQASISCRSSQSLVHRNGNTYFHWCLQKPGQSPKLLIYKVSNRFSGVPDRFSGSGSGTDFTLKISRVEAEDLGVYFCSQSTHVPYTFGGGTKLEIKRTVAAPSVFIFPPSDEQLKSGTASVVCLLNNFYPREAKVQWKVDNALQSGNSQESVTEQDSKDSTYSLSSTLTLSKADYEKHKVYACEVTHQGLSSPVTKSFNRGEC
B7: mAb 0012-(HC-L7-TF)2;LC2 (other)
heavy chain-linker-TF: EVKLLESGGGLVQPGGSLKLSCAASGFDFSRYWMTWVRQAPGKGLEWIGEINPDSSTINYTPSLKDKFIISRDNAKNTLYLQMSEVRSEDTALYYCASGVFTSWGQGTLVTVSAASTKGPSVFPLAPCSRSTSESTAALGCLVKDYFPEPVTVSWNSGALTSGVHTFPAVLQSSGLYSLSSVVTVPSSSLGTKTYTCNVDHKPSNTKVDKRV[human IgG4 Fc with S228P (EU numbers) omitted]GGGGSGGGGSGGGGSGSGGGGSGGGGSGGGGSSGTTNTVAAYNLTWKSTNFKTILEWEPKPVNQVYTVQISTKSGDWKSKCFYTTDTECDLTDEIVKDVKQTYLARVFSYPAGNVESTGSAGEPLYENSPEFTPYLETNLGQPTIQSFEQVGTKVNVTVEDERTLVRRNNTFLSLRDVFGKDLIYTLYYWKSSSSGKKTAKTNTNEFLIDVDKGENYCFSVQAVIPSRTVNRKSTDSPVECMGQEKGEFRE
light chain: DVVMTQTPLSLPVSLGDQASISCRSSQSLVHRNGNTYFHWCLQKPGQSPKLLIYKVSNRFSGVPDRFSGSGSGTDFTLKISRVEAEDLGVYFCSQSTHVPYTFGGGTKLEIKRTVAAPSVFIFPPSDEQLKSGTASVVCLLNNFYPREAKVQWKVDNALQSGNSQESVTEQDSKDSTYSLSSTLTLSKADYEKHKVYACEVTHQGLSSPVTKSFNRGEC

Legend:
[1] = biological target: T1, TLT-1 18-188 relipidated in 20:80 PS:PC …; test: cell-based or functional assay
[2] = biological target: T2, TLT-1 receptor on the surface of …; test: cell-based or functional assay

Row | Binder | FVII-mediated FXa generation % Activity lipidated TLT-1 [1] | FVIIa-mediated FXa generation % Activity lipidated TLT-1 [1] | FVII-mediated FXa generation % Activity activated plts (n 1) [2] | FVIIa-mediated FXa generation % Activity activated plts (n 1) [2] | FVIIa-mediated FXa generation % Activity activated plts (n 2) [2]
1 | B1 | 62% | 91% | 23% | 19% | 
2 | B2 | 68% | 92% | 24% | 21% | 
3 | B3 | 70% | 100% | 23% | 23% | 
4 | B4 | 20% | 42% |  |  | 11%
5 | B5 | 73% | 98% | 24% | 22% | 
6 | B6 | 72% | 99% | 29% | 22% | 
7 | B7 | 68% | 93% | 25% | 23% | 
